From PMC4510971, “Ubinuclein-1 confers histone H3.3-specific-binding by the HIRA histone chaperone complex” (Nature Communications, 2015) come the findings set out here.

One test addresses T1, H3.3/H4 (human | X. laevis, UniProt P84243; P62799).
T1 construct: histone H3.3, human, from a human cDNA library (ATCC 77430); also called H3.3(FL)/H4(FL); FL H3.3/H4; not shown: His6, N-terminal, cleaved; copies: 2 + 2
The experiment in a line: SEC; twofold excess of Asf1 mixed with FL H3/H4 in 2.0 M NaCl, dialysed into 20 mM HEPES pH 7.5, 750 mM NaCl, 1 mM TCEP, complex separated from excess Asf1 on Superdex S75. Conditions: both partners purified.

The target of the next test is T2, H3.1/H4 (human | X. laevis, UniProt P68431; P62799).
T2 construct: also called H3.1(FL)/H4(FL); FL H3.1/H4; not shown: His6, N-terminal, cleaved; copies: 2 + 2
The test is described as above. Conditions: both partners purified.

B1: Asf1([…]) (domain or fragment)
chain: not shown
notes: also called Asf1 core domain; source: E. coli BL21-Gold(DE3), GST-Asf1 cleaved with prescission protease; excess free Asf1 separated from the Asf1/H3/H4 complex by gel filtration
With B1, the binding result in the test with H3.3/H4 and in the test with H3.1/H4 was “binds” throughout.
